From PubChem BioAssay AID894 (National Center for Advancing Translational Sciences (NCATS), 2007)
Hit rate of the full screen: of about 150,000 compounds, about 6,500 (4.3%) were called active. The inconclusive results got no clear call from the source; some entries with a clear call stand among them for comparison. Calls follow the shape of the dose curve; as a rule, active = well fitted inhibition curve with a large enough effect (not every such curve was filed as active); inconclusive = small, poorly fitted or top-dose-only effect, or another doubt; inactive = no such curve, though single readings can be large or run the other way. Potencies beside an inconclusive call are fits to weak or partial responses and may not hold up.

These compounds were tested against 15-hydroxyprostaglandin dehydrogenase [NAD(+)] (Homo sapiens) (UniProt P15428) (assay: qHTS Assay for Inhibitors of HPGD (15-Hydroxyprostaglandin Dehydrogenase)). Settings: purified HPGD, NADH fluorescence kinetic, PGE2 substrate; activity change, negative = inhibition: hits give low values.
Sequence of UniProt P15428 (P15428 whole entry, looked up): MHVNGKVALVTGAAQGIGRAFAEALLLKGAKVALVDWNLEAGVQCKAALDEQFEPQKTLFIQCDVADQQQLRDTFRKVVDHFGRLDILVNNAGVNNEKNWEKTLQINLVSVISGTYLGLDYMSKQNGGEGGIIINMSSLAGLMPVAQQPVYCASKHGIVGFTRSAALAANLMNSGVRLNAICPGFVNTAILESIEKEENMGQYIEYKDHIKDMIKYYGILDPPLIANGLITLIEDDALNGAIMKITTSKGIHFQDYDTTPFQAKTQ
How it was run: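 NADH formation kinetics: reaction with 30 uM PGE2 and 1 mM NAD+ (final), 20 nM enzyme, Tris-HCl pH 8 with Tween 20, after 15 min compound preincubation at room temperature. Fluorescence change, last versus first of five reads.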
% is scaled to controls: 0 for no effect and ±100 for the full control effect; potency is read from the fitted curve at half-maximal effect; tags tell the direction and shape of the fitted curve.

Potency, inconclusive:
COc1ccc(/C=N/NC(=O)c2ccc(N(C)S(=O)(=O)c3ccccc3)cc2)cc1OC 35.5 µM [inhibitor, partial curve]
COC(=O)c1ccccc1NC(=O)NCc1cccnc1 28.2 µM [inhibitor, partial curve, poor fit]
O=C(NCc1ccco1)/C(=C/c1cccc(C(F)(F)F)c1)c1nc2ccccc2[nH]1 28.2 µM [inhibitor, partial curve]
CC(=O)Oc1ccc(C(=O)[C@H]2[C@H]3C(=O)N(c4ccc(C)cc4)C(=O)[C@H]3[C@@H]3C=CC=NN32)cc1 39.8 µM [inhibitor, single point]
Cc1cc2ccccc2c(=O)n1CC(=O)NCC1COc2ccccc2O1 (configuration not stated) 31.6 µM [inhibitor, partial curve]
COC(=O)C1=CN(CC2CCCO2)C=C(C(=O)OC)C1c1cc(OC)c(OC)c(OC)c1 (configuration not stated) 28.2 µM [inhibitor, partial curve]
Cc1ccc(-c2cc(-c3ccc(F)cc3)nc(N)c2C#N)o1 20 µM [inhibitor, partial curve]
CCSc1nnc2c(n1)[nH]c1c(C)cccc12 20 µM [inhibitor, single point]
CCCC1OC23CCCCC2C(C#N)(C#N)C1(C#N)C(=N)O3 (configuration not stated) 28.2 µM [inhibitor, partial curve]
Cc1ccccc1-n1c(SCC(=O)N2CCCC2)nnc1-c1ccccn1 20 µM [inhibitor, partial curve]
Cc1cccc(-n2cc[nH]c2=S)c1 39.8 µM [inhibitor, partial curve, poor fit]
Nc1c(C(=O)O)nnn1Cc1ccccc1 22.4 µM [inhibitor, partial curve]
O=C(Nc1ccccc1)c1cccc(-c2nnc(-c3ccccc3)o2)c1 15.8 µM [inhibitor, partial curve, poor fit]
CCCCCCCCNC(=O)/C(C#N)=C/c1ccccc1[N+](=O)[O-] 35.5 µM [inhibitor, partial curve]
Cc1cc(=O)n2[nH]c(-c3ccccc3)cc2n1 31.6 µM [inhibitor, partial curve]
COc1ccc(-c2[nH]c(-c3ccc(SC)cc3)nc2SCC(=O)Nc2nccs2)cc1 28.2 µM [inhibitor, partial curve]
Clc1ccc(/C=N/c2c(-c3ccco3)nc3ccccn23)cc1 39.8 µM [inhibitor, single point]
CC1=C(C(=O)Nc2ccc(C)cc2C)C(c2cccc([N+](=O)[O-])c2)n2nc(C(=O)OC(C)C)nc2N1 (configuration not stated) 39.8 µM [inhibitor, partial curve]
O=C(O)Cc1ccc2[nH]c3ccc(CC(=O)O)cc3c2c1 28.2 µM [inhibitor, partial curve]
CCOC(=O)CCc1c(C)c(C#N)c2[nH]c3ccccc3n2c1=O 15.8 µM [inhibitor, partial curve]
Cc1ccc(C)c(C(=O)O/N=C(\N)c2ccc(Br)cc2)c1 28.2 µM [inhibitor, single point]
CCOC(=O)N1CCN(C(=O)CN(c2cccc(C(F)(F)F)c2)S(=O)(=O)c2ccccc2)CC1 8.91 µM [inhibitor, single point]
Cc1nc2ccccc2n1CC(=O)N/N=C\C=C\c1ccccc1 31.6 µM [inhibitor, partial curve]
CCn1c(-c2cc3ccccc3cc2O)n[nH]c1=S 28.2 µM [inhibitor, partial curve]
Cn1c(=O)c2c(nc(N/N=C/c3cccs3)n2Cc2ccc(Br)cc2)n(C)c1=O 22.4 µM [inhibitor, partial curve, poor fit]
COc1cccc2c(=O)c3c(cnn3C)n(C)c12 31.6 µM [inhibitor, partial curve]
Cc1cc(/C=N/NC(=O)C(O)(c2ccccc2)c2ccccc2)c(C)n1-c1ccccc1 28.2 µM [inhibitor, partial curve]
Cc1cccc2sc(NC(=O)c3cccc(S(=O)(=O)N4CCc5ccccc54)c3)nc12 35.5 µM [inhibitor, single point]
CCN(CC)S(=O)(=O)c1ccc2[nH]cc(C(=O)NCCCN3CCCCC3C)c(=O)c2c1 (configuration not stated) 28.2 µM [inhibitor, partial curve]
CC1OC23CCCCC2C(C#N)(C(=N)O3)C1(C#N)C#N (configuration not stated) 35.5 µM [inhibitor, partial curve]
COCCCn1c(=N)c(C(=O)NCC2CCCO2)cc2c(=O)n3cccc(C)c3nc21 (configuration not stated) 28.2 µM [inhibitor, partial curve]
COCC(=O)N(C)c1nnc(-c2cnc(C)cn2)s1 22.4 µM [inhibitor, single point]
CCCn1c(CCC(=O)O)ccc1-c1cccs1 35.5 µM [inhibitor, partial curve]
COc1ccccc1-c1cc(C(F)(F)F)nc(N2CCCCC2)n1 25.1 µM [inhibitor, partial curve]
CCCNC(C)C(=O)Nc1ccccc1C (configuration not stated) 20 µM [inhibitor, single point]
N#CC(c1ccccc1)c1ccc(C(=O)c2ccc(F)cc2)cc1 (configuration not stated) 3.98 µM [inhibitor, full curve]
Cc1cc(NC(=O)c2cc(-c3ccc(C)s3)nc3ccccc23)no1 4.47 µM [inhibitor, full curve]
Cc1cc(NS(=O)(=O)c2ccc(Nc3nc(-c4ccc(C)c(C)c4)cs3)cc2)no1 28.2 µM [inhibitor, partial curve]
CCOC(=O)c1c(NC(=O)C(=O)N/N=C(\C)c2ccc(OC)cc2)sc2c1CCCCC2 25.1 µM [inhibitor, partial curve]
Cc1cc2ncn(C(=O)N3CCC(C)CC3)c2cc1C 31.6 µM [inhibitor, single point]
Cc1ccc(CNC(=O)C2CCC(CNc3c(N4CCOCC4)c(=O)c3=O)CC2)cc1 (configuration not stated) 31.6 µM [inhibitor, partial curve]

Potency, active:
Cc1ccc(-c2nn(C)c(=O)c3ccccc23)cc1CNC(=O)c1ccco1 3.55 µM
O=C(O)c1cccc(N2CCCC2=O)c1 20 µM
CCOC(=O)C(=O)/C(=C\N(C)C)c1onc(-c2c(Cl)cccc2Cl)c1C(=O)OC 14.1 µM
Cc1cccc(N2CCN(Cc3ccoc3)CC2)c1C 14.1 µM
O=C(N[C@@H](Cc1ccccc1)C(=O)CCl)OCc1ccccc1 11.2 µM
Cc1ccc(C)c(S(=O)(=O)Nc2cc(SCC(=O)O)c(O)c3ccccc23)c1 0.891 µM
N#CC1=C(N)Oc2cc3ccccc3cc2C1c1cccnc1 (configuration not stated) 28.2 µM
CC(=O)/C=C\c1cn(-c2ncc(C(F)(F)F)cc2Cl)c2ccccc12 31.6 µM
O=c1[nH]n(-c2ccc(Cl)cc2)c2ncccc12 11.2 µM
S=C1NC(c2ccccc2)N2C(=S)NC(c3ccccc3)N12 (configuration not stated) 25.1 µM
CC(C)CCNC(=O)c1ccc2c(SCC(=O)O)c3c(nc2c1)CCCC3 28.2 µM
Cc1cc(C)nc(SCNC(=O)c2ccc(F)cc2)n1 14.1 µM
CCOC(=O)CSc1nc2c(c(=O)[nH]c(=O)n2C)n1C/C=C(/C)Cl 20 µM
O=C(Nc1sc2c(c1C(=O)O)CCC2)c1ccco1 22.4 µM
Cc1nc(N)sc1-c1csc(NCc2ccccc2)n1 17.8 µM
COc1ccc(Cc2nnc(N)s2)cc1 28.2 µM

Activity change, negative = inhibition, inactive:
CCOc1cc(NC(=S)Nc2cccc(OC)c2)c(OCC)cc1NC(=O)c1ccc(C)cc1 -18%
CN(C)S(=O)(=O)c1cccc(C(=O)NC2CCCc3ccccc32)c1 (configuration not stated) -0.844%
CC(NC(=O)CCl)c1ccc(Cl)c(Cl)c1 (configuration not stated) 0.771%
CC(C)(C)OC(=O)NCc1nc(N)n[nH]1 -11.7%
CCC(C)[C@H](NC(=O)N1CCN(C)CC1)C(=O)OC (some centres not stated) -6.51%
COCCOC(=O)C1=C(C)N(c2ccccc2)C(=O)NC1c1cccc([N+](=O)[O-])c1 (configuration not stated) -12.3%
Cc1ccc(S(=O)(=O)NC(=O)NC(C)(C)C)cc1 -0.221%
CC(/C=C/c1ccc(N(C)C)cc1)=N\N=C1\NC(=O)CC(C(=O)Nc2ccccc2)S1 (configuration not stated) -15.4%
O=C(NCC1CCCO1)c1c(O)c2ccccc2[nH]c1=O (configuration not stated) -16%
Cc1ccc(S(C)(=O)=O)cc1S(=O)(=O)Nc1cccc(Cl)c1 1.21%
COc1ccc(C2C(C(=O)N3CCCC3)c3cc(OC)c(OC)cc3C(=O)N2C)cc1 (configuration not stated) -3.75%
COc1ncc2nc(C)c(=O)n(CCC#N)c2n1 -16.1%
COc1ccc2nc(SCC(=O)Nc3c(C)cccc3C)[nH]c2c1 -17.3%
CCOC(=O)c1c(-c2ccc(C)o2)csc1NC(=S)NC(=O)N(C)C -15.6%
COc1ccc(/C(N)=N/OC(=O)C2CCC(=O)N2S(=O)(=O)c2ccc(C)cc2)cc1 (configuration not stated) -11.6%
